Laboratory results reported in the BET-seq Pho4 binding data (Le et al. 2018).
This is one part of the list. These are noisy estimates, calculated here from bound and input reads.

The sequences below were run against T1, Pho4 (S. cerevisiae) (UniProt P07270) (assay: relative binding free energy (BET-seq); higher = weaker binding). Settings: reference: library average.
T1 sequence: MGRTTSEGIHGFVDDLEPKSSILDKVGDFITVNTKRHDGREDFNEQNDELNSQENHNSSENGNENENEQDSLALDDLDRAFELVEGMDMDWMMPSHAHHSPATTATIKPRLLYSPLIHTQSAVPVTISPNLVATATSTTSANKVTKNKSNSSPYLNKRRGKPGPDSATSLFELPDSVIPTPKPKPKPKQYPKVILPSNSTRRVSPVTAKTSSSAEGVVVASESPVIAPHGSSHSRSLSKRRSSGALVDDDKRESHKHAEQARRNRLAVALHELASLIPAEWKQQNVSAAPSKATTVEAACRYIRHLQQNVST
In the case of TTGTTCACGTGTGGAC, the “relative binding free energy” value was 0.14 kcal/mol.
TGCTGCACGTGTAGTT was tested, and the “relative binding free energy” value was -0.13 kcal/mol.
With TGTAGCACGTGACAGT the “relative binding free energy” value was 0 kcal/mol.
For TTCATCACGTGTTAAG, the “relative binding free energy” value was 0.17 kcal/mol.
With AATGCCACGTGGCGGG the “relative binding free energy” value was -0.29 kcal/mol.
With GGGAACACGTGGGCTA the “relative binding free energy” value was 0.04 kcal/mol.
In the case of AGATGCACGTGTATGA, the “relative binding free energy” value was -0.02 kcal/mol.
With TGATTCACGTGTGGCG the “relative binding free energy” value was 0.3 kcal/mol.
With ATGTGCACGTGGTACT the “relative binding free energy” value was -0.06 kcal/mol.
For CAGTGCACGTGGGAGT, the “relative binding free energy” value was -0.11 kcal/mol.
GTAAGCACGTGGCGTA was tested, and the “relative binding free energy” value was -0.11 kcal/mol.
For GGGGTCACGTGGAGGT, the “relative binding free energy” value was 0.11 kcal/mol.
In the case of GTGTCCACGTGGTGAT, the “relative binding free energy” value was 0.04 kcal/mol.
For TTAAGCACGTGTGGCT, the “relative binding free energy” value was -0.2 kcal/mol.
In the case of CTTGGCACGTGGTCGA, the “relative binding free energy” value was -0.31 kcal/mol.
For TGATTCACGTGGGATT, the “relative binding free energy” value was 0.07 kcal/mol.
TTAGTCACGTGACTCG was tested, and the “relative binding free energy” value was 0.29 kcal/mol.
For GCTGGCACGTGTGGGT, the “relative binding free energy” value was 0 kcal/mol.
With TATCGCACGTGGGAAG the “relative binding free energy” value was -0.08 kcal/mol.
For TGGTTCACGTGGTTGC, the “relative binding free energy” value was 0.32 kcal/mol.
GGGTTCACGTGCACGG was tested, and the “relative binding free energy” value was 0.31 kcal/mol.
With TGTTACACGTGACAGG the “relative binding free energy” value was 0.12 kcal/mol.
With GGTTCCACGTGGTTGA the “relative binding free energy” value was 0.24 kcal/mol.
AGGGGCACGTGAAGAG was tested, and the “relative binding free energy” value was 0.1 kcal/mol.
For TGCCGCACGTGTTTGT, the “relative binding free energy” value was -0.02 kcal/mol.
For TGTTTCACGTGCGTCG, the “relative binding free energy” value was 0.27 kcal/mol.
With AGTAGCACGTGAGGTT the “relative binding free energy” value was 0.1 kcal/mol.
For TCGGTCACGTGGGATA, the “relative binding free energy” value was 0.07 kcal/mol.
In the case of CTTTACACGTGGTGCG, the “relative binding free energy” value was -0.01 kcal/mol.
For AGCTGCACGTGGGTAT, the “relative binding free energy” value was -0.18 kcal/mol.
In the case of CTGGTCACGTGACTGG, the “relative binding free energy” value was 0.34 kcal/mol.
With GGTCGCACGTGGCTTT the “relative binding free energy” value was -0.03 kcal/mol.
For TGTGGCACGTGTTTGC, the “relative binding free energy” value was -0.07 kcal/mol.
In the case of TTAGGCACGTGTTTGC, the “relative binding free energy” value was -0.04 kcal/mol.
For TCGGGCACGTGGCAAG, the “relative binding free energy” value was -0.08 kcal/mol.
For TGGTCCACGTGAAGAG, the “relative binding free energy” value was 0.36 kcal/mol.
In the case of CGGTACACGTGAGTGC, the “relative binding free energy” value was 0.23 kcal/mol.
For ATAATCACGTGGTCGG, the “relative binding free energy” value was 0.02 kcal/mol.
GTGGTCACGTGGTTGT was tested, and the “relative binding free energy” value was 0.13 kcal/mol.
In the case of TATTTCACGTGTAAAT, the “relative binding free energy” value was 0.15 kcal/mol.
In the case of TTAGGCACGTGGTGCG, the “relative binding free energy” value was -0.13 kcal/mol.
With GGAGTCACGTGAGTGT the “relative binding free energy” value was 0.37 kcal/mol.
With TGTTACACGTGCATGG the “relative binding free energy” value was 0.02 kcal/mol.
For TCCGGCACGTGGAGTG, the “relative binding free energy” value was 0.02 kcal/mol.
In the case of GTGTGCACGTGTTACG, the “relative binding free energy” value was -0.07 kcal/mol.
With GGAAGCACGTGTTGAG the “relative binding free energy” value was -0.09 kcal/mol.
In the case of AGCTTCACGTGGGTCG, the “relative binding free energy” value was 0.11 kcal/mol.
GGAGTCACGTGTACGG was tested, and the “relative binding free energy” value was 0.25 kcal/mol.
In the case of TTTTGCACGTGAAGCA, the “relative binding free energy” value was 0.23 kcal/mol.
TTGAGCACGTGCTAGT was tested, and the “relative binding free energy” value was -0.24 kcal/mol.
TTCGGCACGTGATAGG was tested, and the “relative binding free energy” value was 0.05 kcal/mol.
For AAATTCACGTGTGGAT, the “relative binding free energy” value was 0.33 kcal/mol.
In the case of GGCGTCACGTGGGCAG, the “relative binding free energy” value was -0.11 kcal/mol.
For GGGGACACGTGTGCTG, the “relative binding free energy” value was 0.05 kcal/mol.
With GACGACACGTGTGGTG the “relative binding free energy” value was 0.02 kcal/mol.
In the case of CGCTACACGTGGGTGT, the “relative binding free energy” value was -0.08 kcal/mol.
With ATGGACACGTGTAGGG the “relative binding free energy” value was 0.08 kcal/mol.
In the case of GGAGGCACGTGGTTCT, the “relative binding free energy” value was -0.07 kcal/mol.
With TCTGGCACGTGAGTTC the “relative binding free energy” value was 0.23 kcal/mol.
In the case of TGTGGCACGTGGATTG, the “relative binding free energy” value was -0.05 kcal/mol.
GGTTACACGTGGTGGC was tested, and the “relative binding free energy” value was 0.03 kcal/mol.
With GAGGGCACGTGTGGAA the “relative binding free energy” value was 0.07 kcal/mol.
TGGGACACGTGTGAGT was tested, and the “relative binding free energy” value was 0.27 kcal/mol.
In the case of CGGATCACGTGGTAAG, the “relative binding free energy” value was 0.17 kcal/mol.
CTTTGCACGTGGTGCA was tested, and the “relative binding free energy” value was -0.02 kcal/mol.
For TTGCACACGTGGTGTT, the “relative binding free energy” value was -0.11 kcal/mol.
AGGTGCACGTGTGTGG was tested, and the “relative binding free energy” value was 0 kcal/mol.
With GATTGCACGTGCGGGA the “relative binding free energy” value was 0.01 kcal/mol.
In the case of GGTATCACGTGTGTGG, the “relative binding free energy” value was 0.25 kcal/mol.
In the case of TCTGTCACGTGGGGGC, the “relative binding free energy” value was -0.15 kcal/mol.
For GATGGCACGTGAAGTC, the “relative binding free energy” value was 0.25 kcal/mol.
AGTGGCACGTGTGCTC was tested, and the “relative binding free energy” value was -0.04 kcal/mol.
ACGGGCACGTGGGTAG was tested, and the “relative binding free energy” value was -0.31 kcal/mol.
In the case of GGATGCACGTGCGGTC, the “relative binding free energy” value was 0.08 kcal/mol.
With TGAAACACGTGCTGGG the “relative binding free energy” value was 0 kcal/mol.
AATGTCACGTGGTATT was tested, and the “relative binding free energy” value was -0.01 kcal/mol.
In the case of TATTACACGTGGCGGT, the “relative binding free energy” value was 0.04 kcal/mol.
CTTTGCACGTGGGATA was tested, and the “relative binding free energy” value was 0 kcal/mol.
With TAAATCACGTGCGGGG the “relative binding free energy” value was 0.15 kcal/mol.
In the case of TTATGCACGTGGATGG, the “relative binding free energy” value was -0.1 kcal/mol.
For GGAGGCACGTGTGGTT, the “relative binding free energy” value was 0.07 kcal/mol.
In the case of GTTGCCACGTGTGGCT, the “relative binding free energy” value was -0.05 kcal/mol.
With GTGCGCACGTGAGTTT the “relative binding free energy” value was 0.18 kcal/mol.
With TTATTCACGTGGTAAG the “relative binding free energy” value was 0.32 kcal/mol.
In the case of ATAGGCACGTGGAAAG, the “relative binding free energy” value was 0.02 kcal/mol.
With AATGTCACGTGACTTG the “relative binding free energy” value was 0.29 kcal/mol.
For ATGGACACGTGCTTGT, the “relative binding free energy” value was -0.16 kcal/mol.
For TGTAACACGTGTGAGA, the “relative binding free energy” value was 0.05 kcal/mol.
With GTGTTCACGTGTTAGA the “relative binding free energy” value was 0.27 kcal/mol.
With GTGGTCACGTGACGAT the “relative binding free energy” value was 0.29 kcal/mol.
TTTGTCACGTGACGTC was tested, and the “relative binding free energy” value was 0.21 kcal/mol.
In the case of TTGAACACGTGGAGGG, the “relative binding free energy” value was -0.05 kcal/mol.
In the case of GTAGACACGTGCGGGT, the “relative binding free energy” value was 0.08 kcal/mol.
With AGTAGCACGTGCAGGT the “relative binding free energy” value was -0.1 kcal/mol.
With AGAGTCACGTGATGCG the “relative binding free energy” value was 0.25 kcal/mol.
In the case of TCTGTCACGTGGATAG, the “relative binding free energy” value was 0.11 kcal/mol.
In the case of AGTCTCACGTGGTTAG, the “relative binding free energy” value was 0.15 kcal/mol.
In the case of AATATCACGTGGGGTA, the “relative binding free energy” value was 0.05 kcal/mol.
GGGCGCACGTGTATAT was tested, and the “relative binding free energy” value was 0.04 kcal/mol.
GTGCTCACGTGTTTTA was tested, and the “relative binding free energy” value was 0.33 kcal/mol.
For ACTGTCACGTGTAGTA, the “relative binding free energy” value was 0.07 kcal/mol.
For GAGTTCACGTGTGGCG, the “relative binding free energy” value was 0.43 kcal/mol.
ATTGGCACGTGGGGGC was tested, and the “relative binding free energy” value was -0.16 kcal/mol.
With TGGGACACGTGTTCGT the “relative binding free energy” value was -0.02 kcal/mol.
In the case of TTTGACACGTGGAGTT, the “relative binding free energy” value was 0.08 kcal/mol.
For TGAGACACGTGAGGTT, the “relative binding free energy” value was 0.17 kcal/mol.
In the case of GGGCTCACGTGTTTGC, the “relative binding free energy” value was 0.21 kcal/mol.
For AAGCGCACGTGGTTGG, the “relative binding free energy” value was -0.11 kcal/mol.
CTGTTCACGTGAGAGT was tested, and the “relative binding free energy” value was 0.53 kcal/mol.
For ATGGTCACGTGGGAAG, the “relative binding free energy” value was 0.11 kcal/mol.
In the case of TGGGGCACGTGCTTAA, the “relative binding free energy” value was -0.13 kcal/mol.
TATATCACGTGGTAGA was tested, and the “relative binding free energy” value was 0.19 kcal/mol.
With TATTGCACGTGCCGGT the “relative binding free energy” value was -0.06 kcal/mol.
TTGTGCACGTGCGAGG was tested, and the “relative binding free energy” value was -0.07 kcal/mol.
With TGAGTCACGTGGCGTA the “relative binding free energy” value was 0 kcal/mol.
